Assay results reported in PubChem BioAssay AID686979 (National Center for Advancing Translational Sciences (NCATS), 2013).
The campaign covered roughly 420,000 compounds. About 50,000 (12%) were called active. Inconclusive results, whose numbers are uncertain, are shown with a selection of clear calls. Calls come from the whole dose curve; as a rule, active = well fitted inhibition curve with a large enough effect; inconclusive = small, poorly fitted or top-dose-only effect; inactive = flat fitted curve, though single readings scatter. Potencies of inconclusive entries are left out as doubtful fits.

Experiment: qHTS for Inhibitors of human tyrosyl-DNA phosphodiesterase 1 (TDP1): qHTS in cells in presence of CPT; note: nearly all actives have a fitted effect of over 55% in size
Conditions: chicken DT40 Tdp1-/-;hTDP1 cells + 20 nM CPT, ATP luminescence, 48 h; activity change, negative = growth inhibition: at 46.2 µM (top of the series)
Method in brief: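 Chicken DT40 Tdp1-/- cells complemented with human TDP1, 400 cells/well, exposed to compounds plus 20 nM camptothecin for at least 48 h at 37 C; viability read as ATP content by CellTiter-Glo luminescence.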
% is set by controls: 0 for no effect and ±100 for the full control effect; potency is the fitted concentration of half-maximal effect; tags give direction and shape of the fitted curve.

SMILES	Potency	activity change, negative = growth inhibition
COc1ccc(OC)c(-c2csc(N(CC3CCCO3)C(=O)C3CCCCC3)n2)c1 (stereo not given)	active: 20.6 µM	
COc1cc2nc(CN(CCO)C3CS(=O)(=O)CC3O)nc(N3CCCCC3)c2cc1OC (stereo not given)		inactive: -5.52% [at 9.04 µM]
O=C(c1ccc(COc2ccccc2Br)o1)N1N=C(C(F)F)CC1(O)C(F)F (stereo not given)	active: 18.4 µM	
CCn1cc(C(=O)NCc2ccc3c(c2)OCO3)c(=O)c2cc(F)c(N3CCN(C(=O)c4ccco4)CC3)cc21	active: 11.6 µM	
O=S(=O)(c1ccc(OCC(O)CN2CCN(c3ccc(F)cc3)CC2)cc1)N1CCOCC1 (stereo not given)	inconclusive [inhibitor, partial curve, poor fit]	
Cc1sc2ncn(CC(=O)N3CCN(c4cccc(Cl)c4)CC3)c(=O)c2c1S(=O)(=O)N1CCN(c2ncccn2)CC1		inactive: -18.8%
COc1ccc(C(C(=O)NCc2ccccc2)N(Cc2ccco2)C(=O)c2snc(C(N)=O)c2N)cc1 (stereo not given)	inconclusive [inhibitor, single point]	
COc1ccccc1N1CCN(S(=O)(=O)CCNC(=O)COc2ccc(C(C)C)cc2)CC1	inconclusive [inhibitor, single point]	
O=C(NC(=S)Nc1ccccc1N1CCCCC1)c1ccccc1	inconclusive [inhibitor, single point]	
NC(=O)c1nc(-c2ccccc2)c(-c2ccccc2)[nH]c1=O	active: 0.58 µM	
Cn1c(=O)[nH]c(=O)c2c1nc(N1CCC(Cc3ccccc3)CC1)n2Cc1ccccc1	inconclusive [inhibitor, single point]	
COc1cccc(OCc2cc(C(=O)N3CCN(C4CCCCC4)C(=O)C3)no2)c1		inactive: -5.9%
O=C(Nc1nccs1)c1ccc2c(=O)n3c(nc2c1)CCCCC3	inconclusive [inhibitor, partial curve]	
CN(C)S(=O)(=O)n1cc(/C=C(\NC(=O)c2ccccc2F)C(=O)NCCN2CCOCC2)c2ccccc21	inconclusive [inhibitor, single point]	
C[C@H]1CN([C@@H](C)CO)C(=O)CCCn2nncc2CO[C@H]1CN(C)C(=O)C1CCCCC1		inconclusive: -8.05% [inhibitor]
CCc1ccc(N=C2NC(=O)/C(=C/c3cc(OC)c(O)c(OC)c3)S2)cc1	inconclusive [inhibitor, single point]	
CC(C)NC(=O)NNc1c(Cl)cncc1Cl		inactive: 9.64%
COc1ccc(N/N=C(/C#N)S(=O)(=O)c2nsc(C)c2C#N)cc1		inactive: 1.8%
C[C@H](O)[C@@H]1CN2CCc3c([nH]c4ccccc34)[C@@H]2C[C@@H]1N(C)C(=O)NC1CCCCC1	inconclusive [inhibitor, partial curve]	
CN=C(c1ccc(C)cc1)n1c(=S)nc(-c2ccc(C)cc2)n(C)c1=S	inconclusive [inhibitor, single point]	
Cc1cc(N)n(-c2ccccc2)n1		inactive: -9.68%
COc1ccc(S(=O)(=O)N2CCN(C(=O)C3CC3)CC2)cc1		inactive: -0.102%
CCc1nc2ccccc2n1Cc1ccccc1OC	inconclusive [inhibitor, single point]	
CC1Cc2cc(S(=O)(=O)N3CCN(c4ccccc4F)CC3)ccc2N1C(=O)C1CC1 (stereo not given)	inconclusive [inhibitor, single point]	

SMILES	Potency	activity change, negative = growth inhibition
O=C(c1ccco1)N1CCC(c2nc(-c3ccc(F)cc3)no2)CC1	inconclusive [inhibitor, single point]	
COc1ccc(CCNC(=O)C23CN(Cc4ccccc4)CC2C(c2ccc([N+](=O)[O-])cc2)=NO3)cc1 (stereo not given)	inconclusive [inhibitor, single point]	
O=C(NCC(c1cccnc1)N1CCN(c2ccccc2)CC1)c1ccco1 (stereo not given)		inactive: -5.83%
COc1cc2ccc(C(C)=NNC(N)=S)cc2cc1OC	inconclusive [inhibitor, single point]	
CCN(CC(=O)Nc1ccc(NC(C)=O)cc1)C(=O)c1cc(C)on1		inactive: 15.9%
Cc1cc(C)nc(NC(=O)/C=C/c2ccccc2Cl)c1		inactive: -5.17%
CCNc1nnc(SCC(=O)c2c(N)n(C3CC3)c(=O)[nH]c2=O)s1		inactive: -18.6%
COc1ccc(OC)c(N(CC(=O)NCCSCc2ccco2)S(=O)(=O)c2ccc(OC)c(OC)c2)c1	active: 13 µM	
CC1CCCCN1C(=O)c1cc(Cl)ccc1[N+](=O)[O-] (stereo not given)	inconclusive [inhibitor, single point]	
c1ccc(Cn2nnc3c(N4CCN(Cc5ccc6c(c5)OCO6)CC4)ncnc32)cc1	inconclusive [inhibitor, partial curve]	
CC(=O)N1c2ccc(S(=O)(=O)NCC3CCC(C(=O)Nc4cccc(C)c4C)CC3)cc2CC1C (stereo not given)	inconclusive [inhibitor, partial curve]	
CC1(c2nnnn2-c2ccc3c(c2)OCCO3)CCC(=O)N1Cc1cccc(C(F)(F)F)c1 (stereo not given)	inconclusive [inhibitor, partial curve]	
COc1ccc(-c2noc(-c3ccccc3C(=O)Nc3cccnc3)n2)cc1	inconclusive [inhibitor, single point]	
Cc1ccccc1C(=O)Nc1c(C)nc(Nc2ccccc2)nc1Nc1ccccc1	inconclusive [inhibitor, single point]	
CCOCCCNC(=O)C(c1ccc(OC)cc1)N(Cc1ccc2c(c1)OCO2)C(=O)c1ccccc1O (stereo not given)	inconclusive [inhibitor, partial curve]	
COc1ccc(/C=C2\N=C(C)OC2=O)cc1OC(C)=O	inconclusive [inhibitor, partial curve]	
O=C(COC(=O)c1ccc([N+](=O)[O-])cc1)Nc1cccnc1Cl		inactive: -18.9%
CC(=O)Nc1ccc(NC(=O)c2c([N+](=O)[O-])c(C(C)(C)C)nn2C)cc1		inactive: -27.9%
Cc1ccc2c(Cl)c(C(=O)NCC(c3ccco3)N3CCCC3)sc2c1 (stereo not given)	active: 18.4 µM	
O=c1oc2ccccc2c(Nc2ccc3ccccc3c2)c1[N+](=O)[O-]	active: 14.6 µM	
COC(=O)Cn1c(C)c(/C=C/c2cc[n+](C)cc2)c2ccccc21	inconclusive [inhibitor, single point]	
Cc1cccc(N2CCN(C(=O)c3cc4c(=O)n(C)c5ccccc5c4s3)CC2C)c1 (stereo not given)	inconclusive [inhibitor, partial curve]	
CN(C)CCNC(=O)c1cc2sc3ccccc3c2s1	inconclusive [inhibitor, single point]	
COc1cc(/C=C/C(=O)OCC(=O)Nc2ccc(S(=O)(=O)N3CCCC3)cc2)ccc1O	inconclusive [inhibitor, single point]	

SMILES	Potency	activity change, negative = growth inhibition
CCN1CCN(CC(=O)Nc2ccc(C)cc2C)C(=O)C1=O		inactive: 13.3%
Cc1c(C(=O)NCc2cccc([N+](=O)[O-])c2)sc(=O)n1Cc1cccc(F)c1	inconclusive [inhibitor, single point]	
O=C(NCc1ccccc1Br)c1ccc2c(c1)OCCO2		inactive: 4.47%
COc1cc(OC)c2c(-c3ccccc3)cc(=O)oc2c1C(CCN1CCCC(C)C1)c1ccc2c(c1)OCO2 (stereo not given)	inconclusive [inhibitor, single point]	
Cc1cc(C)c(NC(=O)CC(=O)c2ccccc2)c(Cl)c1		inactive: -11.8%
CN(C)C(CNC(=O)C1CCN(S(=O)(=O)c2ccccc2C(F)(F)F)CC1)Cc1ccccc1 (stereo not given)	inconclusive [inhibitor, single point]	
Cc1c(F)c(N2CCNC(C)C2)cc2c1c(=O)c(C(=O)O)cn2C1CC1 (stereo not given)		inactive: 0.116%
OCCOCCn1c(C2CCCN2c2nc(-c3ccc(F)cc3)cs2)nc2cc(Cl)c(Cl)cc21 (stereo not given)	inconclusive [inhibitor, single point]	
CC(=O)c1cccc(OCC(=O)N2CCN(c3ccc(C(F)(F)F)cn3)CC2)c1	inconclusive [inhibitor, single point]	
O=C(Cc1ccc([N+](=O)[O-])cc1)N1N=C(c2ccncc2)CC1(O)C(F)(F)F (stereo not given)	active: 20.6 µM	
CC1CCN(C(=O)CCCC(=O)N2CCC(C)CC2)CC1		inactive: -13.1%
Cc1c(C)n(C)c2ccc(C(=O)NCCCN3CCOCC3)cc12		inactive: -2.26%
Cc1ccc(Cl)cc1N1CCN(Cc2cc(=O)n3ccsc3n2)CC1		inactive: -17%
c1ccc(-c2csc3nnc(SCc4ccc5c(c4)OCCO5)n23)cc1	inconclusive [inhibitor, partial curve]	
CCN1CCN(c2cc(C)c3cc(NC(=O)c4ccc5c(c4)OCO5)ccc3n2)CC1	active: 11.6 µM	
Cc1nc2ccccc2n1C(C)c1nc2ccccc2n1CC(=O)c1ccsc1 (stereo not given)	inconclusive [inhibitor, single point]	
Cc1ccc(-c2cc(-c3n[nH]c(=S)o3)c3ccccc3n2)cc1	active: 16.4 µM	
Cc1ccc(-c2nnc(CSc3nnc(COc4cccc5ccccc45)n3-c3ccccc3)o2)cc1	inconclusive [inhibitor, single point]	
O=C(Oc1ccc[nH]c1=O)C1CC1		inactive: -7.99%
CCC(CC)c1nnc(NC(=O)COc2ccc3c(c2)OCO3)s1		inconclusive: -34.7% [inhibitor]
COc1cccc(-c2ccc3ncnc(NCc4cccs4)c3c2)c1	inconclusive [inhibitor, single point]	
COc1ccccc1C(=O)C1CCCN(C(=O)CCn2cnnn2)C1 (stereo not given)		inactive: -21.5%
